About 65 (0.1%) of roughly 45,000 compounds were called active. Calls follow the shape of the dose curve; as a rule, active = well fitted activation curve with a large enough effect; inconclusive = small, poorly fitted or top-dose-only effect; inactive = no such curve, though single readings can be large or run the other way. Some of the results follow.
Biological target: Galactocerebrosidase (Homo sapiens) (UniProt P54803)
Test: A Novel Cell-Based Assay to Identify Small Molecules for B -Galactocerebrosidase; also: 0% is about no effect; nearly all actives have a fitted effect of over 65% in size
Settings: 145M-Twi-hGALC-G270D cells, HMU-beta-Gal fluorescence, 48 h; series mostly up to 57.5 µM; activation: at the top concentration
In short: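 qHTS, 1536-well; 145M-Twi-hGALC-G270D cells (WT line also made) in DMEM/F12 + 10% FBS; compound incubation on live cells; HMU-β-gal 0.1 mM final, pH 5.2, NaTC; carbonate stop; fluorescence increase = enhanced residual activity.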

Chain of UniProt P54803 (P54803 whole entry, looked up): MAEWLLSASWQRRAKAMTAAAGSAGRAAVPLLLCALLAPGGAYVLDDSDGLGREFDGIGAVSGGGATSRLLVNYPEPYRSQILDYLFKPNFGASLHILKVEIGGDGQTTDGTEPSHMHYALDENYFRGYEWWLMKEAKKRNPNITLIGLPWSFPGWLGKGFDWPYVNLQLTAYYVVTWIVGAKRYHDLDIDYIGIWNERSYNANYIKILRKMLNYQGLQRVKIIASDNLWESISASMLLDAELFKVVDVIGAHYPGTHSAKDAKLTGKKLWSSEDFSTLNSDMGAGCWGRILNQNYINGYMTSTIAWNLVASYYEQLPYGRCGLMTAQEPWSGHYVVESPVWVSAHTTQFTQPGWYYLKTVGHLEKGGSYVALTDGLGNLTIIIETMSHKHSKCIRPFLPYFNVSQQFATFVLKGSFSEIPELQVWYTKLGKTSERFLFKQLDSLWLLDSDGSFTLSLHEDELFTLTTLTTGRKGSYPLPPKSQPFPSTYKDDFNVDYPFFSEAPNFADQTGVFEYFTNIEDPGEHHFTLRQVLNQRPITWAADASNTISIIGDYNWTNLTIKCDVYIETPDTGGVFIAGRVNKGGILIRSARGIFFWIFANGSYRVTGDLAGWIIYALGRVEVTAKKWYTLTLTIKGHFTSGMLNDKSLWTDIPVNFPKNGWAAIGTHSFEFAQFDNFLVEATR

activation, inactive:
CCOc1ccc(NC(=O)NCc2c(-n3cccc3)sc3c2CCCC3)cc1 -19.3%
Cc1oc2ncnc(N3CCCCC3)c2c1C(=O)N1CCN(c2cccc(C(F)(F)F)c2)CC1 -24.7%
CC(=O)c1ccc(NC(=O)CSc2nnc3ccc(-c4ccc(Cl)cc4)nn23)cc1 -14.8%
Cc1ccc(Nc2c(-c3cccs3)nc3nc(C)cc(C)n23)cc1 -7.48%
CCOc1ccc(NC(=O)C2CCCN(S(=O)(=O)c3cccc4nonc34)C2)cc1 (configuration not stated) -11.6%
CCOc1ccccc1NC(=O)C(=O)NCCc1sc(-c2cccc(F)c2)nc1C -4.03%
COc1ccc(-c2cc(C(F)(F)F)nc(S(=O)(=O)CCCC(=O)Nc3cccc(O)c3)n2)cc1OC -13.9%
CCC(=O)Oc1ccc(/C=C(\C#N)c2nc3ccccc3[nH]2)cc1OC -0.953%
CCCC(=O)N1CCN(c2nc3c(OC)ccc(C)c3s2)CC1 -9.35%
CC(C)(C)OC(=O)N1CCC(c2c(C(=O)N3CCN(C(=O)c4ccco4)CC3)cnn2-c2cccc(F)c2)CC1 8.58%
CCOc1ccc(-n2c(SCC(=O)N3CCOCC3)nc3c([nH]c4ccccc43)c2=O)cc1 -4.69%
COc1ccc2c(c1OC)C(=O)O[C@@H]2[C@H]1c2c(cc3c(c2OC)OCO3)CCN1C -10.7%
COc1cc(C(=O)Nc2ccc3nc(SCc4ccc(C)cc4)sc3c2)cc(OC)c1OC -22.8%
Cc1ccc(Cl)cc1-n1ncc2c(NC3CCCCCC3)ncnc21 -6.63%
Cc1ccc(-n2nc(C(=O)N3CCC(C)CC3)c(=O)n(C)c2=O)cc1 -17.7%
Cc1ccc(C)c(Nc2nnc(-n3nc(C)cc3C)c3ccccc23)c1 -28.2%
O=C(Nc1cccc(F)c1)c1ccc2snnc2c1 -19%
CCN(c1ccccc1)S(=O)(=O)c1nnc(NC(=O)c2cccs2)s1 -6.43%
Cc1nc(N2CCOCC2)c2c(C(=O)Nc3cccc(C(F)(F)F)c3)c(C)oc2n1 -6.32%
Cc1ccc(S(=O)(=O)NCCS(=O)(=O)N2CCN(c3ccccc3)CC2)cc1 -21.9%
COc1ccc(CNC(=O)C2CCN(Cc3nc(-c4ccc(Cl)cc4)oc3C)CC2)cc1 4.91%
Cc1ccc(Cc2nc3ccccc3nc2SCC(=O)Nc2ccc3c(c2)OCO3)cc1 6.31%
O=C(NC1CC(=O)N(c2cccc(F)c2)C1)c1ccc(Br)o1 (configuration not stated) 7.06%
CSc1ccc(CCNC(=O)CCc2c(C)nc3c(c(C)nn3-c3ccccc3)c2C)cc1 -10.7%
Cc1ccc(CNC(=O)C(CC(C)C)NS(=O)(=O)c2ccc3c(c2)oc(=O)n3C)cc1 (configuration not stated) -9.89%
O=C(O)c1cc(-n2c(/C=C\c3ccc(F)cc3)nc3ccccc3c2=O)ccc1Cl 2.58%
O=C(NCc1ccc(Cl)cc1)c1cnc(N2CCCCC2)c2ccccc12 -2.29%
Cc1cccc(N2CCN(CCNC(=O)C3COc4ccccc4C3)CC2)c1C (configuration not stated) -8.4%
Cc1c(S(=O)(=O)c2cccc(Cl)c2)nnn1-c1cccc(C(F)(F)F)c1 -27.5%
CC(=O)c1ccc(NC(=O)CCSc2nc(-c3ccco3)cc(C(F)(F)F)n2)cc1 -16.5%
COc1ccc(OC)c(NC(=O)c2noc3c2CCCC3)c1 -2.12%
CCOC(=O)Cc1ccc(NC(=O)N2CCOc3ccc(C)cc32)cc1 -17.7%
COC(=O)c1c(-c2ccc(Cl)cc2)noc1N1CCN(c2ccc(C)cc2C)CC1 -12.3%
CC(C)c1ccc(NC(=O)C2CCCN(S(=O)(=O)c3cccc4cccnc34)C2)cc1 (configuration not stated) -11.5%
CCCCN(C)CCCNC(=O)C1CCN(c2nc3ccc(CC)cc3s2)CC1 -16.8%
CCc1nnc2c3ccccc3nc(Nc3ccc(C(C)=O)cc3)n12 -7.15%
CCOC(=O)Cn1c(=O)oc2cc(S(=O)(=O)N3CCN(c4cccc(C)c4C)CC3)ccc21 -7.15%
Cc1ccc2nc(N(Cc3cccnc3)C(=O)COc3ccccc3)sc2c1 -16%
Cc1ccc(OC(C)C(=O)Nc2nonc2-c2ccc(Br)cc2)cc1C (configuration not stated) -18.1%
CCOC(=O)c1cc(S(=O)(=O)N2CCN(c3ccccc3)CC2)[nH]n1 1.25%
CC(C)OCCCNC(=O)c1ccc2c(c1)N(Cc1c(F)cccc1Cl)C(=O)c1ccccc1S2 -7.55%
COc1ccc(-c2nn3c(=O)cc(CN4CCN(C(=O)c5ccc(C(C)(C)C)cc5)CC4)nc3s2)cc1 -5.29%
CCOC(=O)CC(NS(=O)(=O)c1ccc2[nH]c3c(c2c1)CCCC3)c1ccccc1Cl (configuration not stated) -13.8%
COc1ccc(C(=O)NCC(c2cccnc2)N2CCc3ccccc32)cc1 (configuration not stated) -41.1%
Cc1ccc(Oc2c(C(F)(F)F)oc3c(CN4CCCCC4C)c(O)ccc3c2=O)cc1 (configuration not stated) -12%
Cc1ccc(Nc2c(-c3c[nH]c4ccccc34)nc3cc(C)ccn23)cc1 -4.86%
COc1cc(OC)c(OC)cc1/C=C/c1nc2cc3ccccc3cc2c(=O)n1-c1ccc(Cl)cc1 -17.9%
CCOc1ccccc1NC(=O)CSc1nc2c(oc3ccccc32)c(=O)n1-c1ccc(C)c(C)c1 -12.9%
CCOC(=O)C1=C(CS(=O)(=O)c2cccc(C(F)(F)F)c2)NC(=O)NC1c1cccc(OC)c1 (configuration not stated) -1.94%
CCC(C(=O)Nc1cc(Cl)ccc1OC)n1nc(-c2ccccc2)ccc1=O (configuration not stated) 0.744%
Cc1cccc(NC(=O)c2oc3ccccc3c2NC(=O)Cc2coc3c(C)c(C)ccc23)c1 -15.5%
O=C(CCC1N=C2c3ccccc3N=C(SCc3ccc(F)cc3)N2C1=O)NCc1cccs1 (configuration not stated) -20.1%
CC1=C(c2ccc(C)c(C)c2)S(=O)(=O)N(Cc2ccc(C(=O)NCc3cccc(C)c3)cc2)C1=O -10.4%
Cc1c(Cl)cccc1NC(=O)CN1C(=O)CCn2nc(-c3cccn3C)cc21 -7.13%
CCOC(=O)C(Cc1c[nH]c2ccccc12)NC(=O)COc1ccc(Cl)cc1 (configuration not stated) -27.1%
O=C(NCc1ccc2c(c1)CCN2C(=O)c1ccncc1)c1ccc(Cl)cc1 -0.736%
COc1cccc(-c2nnc3n(Cc4ccccc4Cl)c(=O)c4ccccc4n23)c1O -15.5%
O=C(c1ccccc1)C(O)c1ccccc1 (configuration not stated) -9.94%
CC(C)Oc1ccc(CNC(=O)CCCn2c(=O)c3cccn3c3cccnc32)cc1 7.6%
Cc1ccc2c(=O)c(C(=O)c3ccccc3)cn(CC(=O)Nc3ccccc3)c2n1 -13.6%
O=C(NCCCN1CCCCC1)c1cc(Sc2ccc(Cl)cc2)nc2ccccc12 -3.88%
CCn1c(NCc2cccc(Cl)c2)nc2ccccc21 -16.9%
COc1cccc(C(=O)NC2=NC(c3ccc(N(C)C)cc3)CC(=O)N2)c1 (configuration not stated) -7.51%
O=C(CSc1nc(-c2ccccc2)cn1-c1ccccc1)Nc1ccccc1 -6.89%
COc1cc(-c2nc3ccc(C)cn3c2Nc2ccc(Cl)cc2)ccc1O 15.2%
COc1ccc(-n2c(=O)c3ccc(C(=O)NCc4ccc(C)cc4)cc3n(CC(=O)Nc3ccc(C)cc3)c2=O)cc1 -11.9%
Cc1cc(C)c(C(=O)Nc2ccccc2)c(SCC(=O)Nc2ccc(Br)cc2C)n1 -11.9%
Cc1ccc(Cn2c(C(=O)O)c(CNCCc3ccco3)c3ccc(C)cc32)cc1 3.63%
Cc1c[nH]c2ccccc12 -6.72%
COc1ccccc1NC(=O)CCn1c(=O)oc2cc(Cl)ccc21 -16.3%
COc1ccc(Cl)cc1NC(=O)c1nn(C)c2c1CS(=O)(=O)c1ccccc1-2 -13.2%
COCCCNC(=O)C1CCN(c2cc(C)nc3c(-c4ccc(OC)c(OC)c4)c(C)nn23)CC1 -14.3%
CCOc1cc(-c2nc(-c3ccc(-c4ccc(OC)cc4)nc3OC)no2)cc(OCC)c1OCC -15.5%
COc1ccc(-n2cc(C(=O)NCc3cccc(OC)c3)c3ccccc3c2=O)cc1 7.87%
COc1ccc(-c2cc(C(=O)NCCc3ccccc3)c3cc(C(C)C)ccc3n2)cc1 -18.6%
O=S(=O)(c1ccc(Br)cc1)c1nnn2c1nc(NCc1cccs1)c1sccc12 -4.09%
CC(=O)c1ccc(N2CCN(C3C(=O)c4ccccc4N3C(C)=O)CC2)cc1 (configuration not stated) 1.04%
Cc1nc2nc(NC(=O)c3ccc(Cl)cc3)[nH]n2c(=O)c1Cc1ccccc1 -13.8%
CCc1ccc(NC(=O)CSc2nc(=O)n(Cc3ccco3)c3c2CCC3)cc1 -11.1%
CC1=C(C(=O)Nc2ccccc2C)C(c2ccccn2)n2nc(SCc3ccccc3F)nc2N1 (configuration not stated) -19.4%
O=C(CSc1nc(=O)n(Cc2ccco2)c2c1CCC2)NCc1ccc(F)cc1 -7.72%
COc1ccc2nc(NC(=O)c3ccc(S(=O)(=O)N4CCCC(C)C4)cc3)sc2c1 (configuration not stated) -19.9%
O=C(NC1CC(=O)N(c2ccc(Cl)cc2)C1)c1cccs1 (configuration not stated) 0.576%
CC(NC(=O)Cn1c(-c2cccs2)cc2cc(F)ccc21)c1ccccc1 (configuration not stated) -3.33%
O=c1[nH]c(SCc2ccc(Br)cc2)nc2c1CCCC2 -13%
Cc1ccc(S(=O)(=O)c2nnn3c2nc(N2CCN(c4ccccc4F)CC2)c2ccccc23)cc1C 7.78%
Cc1ccc(C(=O)NC2(C(F)(F)F)C(=O)Nc3c2c(=O)[nH]c(=O)n3CCc2ccccc2)cc1 (configuration not stated) -6.28%
CCOC(=O)c1cc(-c2ccccc2)n(CCCC(=O)Nc2ccc(C)cc2C)c1C -13.4%
Cc1cccn2c(=O)c3cc(C(=O)NCc4ccccc4Cl)sc3nc12 -9.42%
COc1ccc(-c2cc(C(=O)Oc3ccc(C)c(C)c3)c3ccccc3n2)cc1 -6.02%
O=C(Cn1c(=O)n(Cc2ccc3c(c2)OCO3)c(=O)c2ccc(C(=O)NC3CCCCC3)cc21)Nc1ccccc1F -34.4%
CCC(C)NC(=O)c1c(-c2ccccc2)c(-c2ccccc2)nn(C)c1=O (configuration not stated) -13.7%
CCOc1ccc(-n2c(SCC(=O)N3CCCCC3)nc3c([nH]c4ccccc43)c2=O)cc1 -22.5%
CC(C)(C)C(=O)N1CCN(c2nc3c(F)cccc3s2)CC1 -20.3%
Cc1cccc(-n2c3nc(=O)n(C)c(=O)c-3cc3ccc(Cl)cc32)c1C -5.57%
Cc1noc2ncnc(NCc3cccc(Cl)c3)c12 -39.2%
Cc1c(C(=O)N2CCC(C(=O)Nc3ccc(F)cc3)CC2)sc2nc[nH]c(=O)c12 -10.9%
